Measured values reported in the RNAGym collection of RNA variant scans (doi:10.7554/elife.90254).
Read counts are not given, so values of variants with three or more changes are uncertain.

B1: LINE1-mini (parent)
chain: GGCAGAGCUCAACACAGCGUGGCAAAGUGGCUGUGGCUAGACUGCC

Variants of: B1
Assay: self-cleavage, relative activity (ratio to wild type); higher = more cleavage; in vitro, sequencing; the parent is a self-cleaving ribozyme
With G19U G27A C37A A39C the self-cleavage was 0.02.
With G19A U32A C37A C42U the self-cleavage was 0.05.
G19U A24U G35U showed a self-cleavage of 0.08.
In the case of U20A A25C G29C U32C G36A C42U G44U, the self-cleavage is reported as 0.01.
With G19A G33C G35C U38G G44C C45A the self-cleavage was 0.01.
Work on G19A G40C G44U yielded a self-cleavage of 0.45.
For G19U A24G C31A G33A G35C G36U, the self-cleavage was 0.2.
G19A G21U C42U showed a self-cleavage of 0.06.
In the case of G19C G29C G40U, the self-cleavage is reported as 0.13.
G19U U20A G22C gave a self-cleavage of 0.59.
G19U C31G C42U showed a self-cleavage of 0.03.
G19A A26C G27U C46A showed a self-cleavage of 2.03.
Variant G19U U20C G29A G33C G35C has a self-cleavage of 0.02.
U20A A25U A26C G33A showed a self-cleavage of 0.03.
G19A A26U U34C gave a self-cleavage of 0.22.
U20A C31A G40U G44U gave a self-cleavage of 0.02.
G19C G22U U28C G33C gave a self-cleavage of 0.41.
U20A G21U G27U G30C C45U showed a self-cleavage of 0.7.
Work on U20A C31U U34A yielded a self-cleavage of 0.05.
With G19A G36U G40C the self-cleavage was 0.1.
G19A U20A G33A G35C gave a self-cleavage of 0.05.
Work on G19A U34A G36U yielded a self-cleavage of 0.04.
G19A G22C A41G showed a self-cleavage of 0.29.
Variant G19C U28C C42A has a self-cleavage of 0.06.
With U20A A39G C45A the self-cleavage was 0.08.
G19A A26C U38C A41C C45U gave a self-cleavage of 0.01.
With G19C G21A G44U the self-cleavage was 0.28.
With G19A C31U U43A the self-cleavage was 0.04.
In the case of G19C G29U U34G, the self-cleavage is reported as 0.05.
For G19A G22C A25C C37A A39G, the self-cleavage was 0.04.
G19U G22U A24G U28C G30U A41G G44A gave a self-cleavage of 0.04.
Work on G19C C23G C46A yielded a self-cleavage of 0.18.
G19U U28G C42G showed a self-cleavage of 0.01.
Variant G19U U32C G36A has a self-cleavage of 0.08.
For U20A C45U C46U, the self-cleavage was 0.13.
G19U U28G G33U gave a self-cleavage of 0.07.
Variant G19A C42A U43A has a self-cleavage of 0.04.
G19A G21U G40U C42A showed a self-cleavage of 0.03.
G19U G36A G40U showed a self-cleavage of 0.08.
G19U G30C G35A showed a self-cleavage of 0.04.
G19A U20C U28A C37U U43C G44A showed a self-cleavage of 0.04.
With G19U U20G U38C C45G the self-cleavage was 0.96.
Work on G19A C42U U43A yielded a self-cleavage of 0.08.
With G19U C23U A24G G40U the self-cleavage was 0.25.
In the case of G19U G35U C42A, the self-cleavage is reported as 0.05.
With G19A U20A G22U C23U U32G the self-cleavage was 0.04.
For G19U G30A U32C, the self-cleavage was 0.11.
With G19C G30A G40U the self-cleavage was 0.24.
Work on G19C G22A G29U G35U yielded a self-cleavage of 0.09.
G19A G33U G35U showed a self-cleavage of 0.03.
Work on G19U U43A G44A yielded a self-cleavage of 0.01.
With G19C A25C G30C C46G the self-cleavage was 0.1.
Variant U20A G21C A25G G33U has a self-cleavage of 0.02.
G19U G22A G33C gave a self-cleavage of 0.03.
For G19U A25C C42G, the self-cleavage was 0.02.
G19U G21A A41U gave a self-cleavage of 1.17.
In the case of G19A G22A U28A, the self-cleavage is reported as 0.59.
Variant G19C A25G U28A C45U has a self-cleavage of 0.33.
U20A C42G C46U showed a self-cleavage of 0.
G19A G30U G44A showed a self-cleavage of 0.49.
G19A C31G A41C gave a self-cleavage of 0.02.
G19A C23A U28A G35A G36A showed a self-cleavage of 0.57.
With G19A G40A A41G the self-cleavage was 0.07.
G19C C23U G33C gave a self-cleavage of 0.08.
For G19C G30C G35C, the self-cleavage was 0.15.
Variant U20A A25U U28A A41U G44C has a self-cleavage of 0.04.
Variant G19A C23G C42U G44A C46U has a self-cleavage of 0.01.
With G19C U32G A41G the self-cleavage was 0.05.
With G19C U32G A41U the self-cleavage was 0.05.
G19C G27U C42U showed a self-cleavage of 0.05.
U20A C37A C46A gave a self-cleavage of 0.07.
G19A G40U C46U gave a self-cleavage of 0.13.
Variant G19U U32C C46U has a self-cleavage of 0.03.
G19U U20A A26U U38C showed a self-cleavage of 0.14.
G19U G29C C31A A41G showed a self-cleavage of 0.04.
For G19C G27U C31A G36U, the self-cleavage was 0.21.
G19C C23A G27A G30A C46U gave a self-cleavage of 0.66.
Variant G19U C37U C45A has a self-cleavage of 0.03.
G19A G29U G30U C37A C45G gave a self-cleavage of 0.08.
In the case of U20A A26U C42U C46A, the self-cleavage is reported as 0.08.
Variant G19C G27A U32A C45G has a self-cleavage of 0.09.
Work on G19U G21A U34A yielded a self-cleavage of 0.1.
G19C A24U G29A C31U U34C C42G showed a self-cleavage of 0.15.
